Experimental findings from publication PMC4336329 (PLoS ONE, 2015) are described below.

Among all 310,000 compounds or so, about 2,200 (0.71%) showed an effect of 50% or more. The effect is printed as a negative number. The list shows a part of the results.

human ether-à-go-go-related gene (hERG) potassium channel, sequence (Q12809 whole entry, looked up): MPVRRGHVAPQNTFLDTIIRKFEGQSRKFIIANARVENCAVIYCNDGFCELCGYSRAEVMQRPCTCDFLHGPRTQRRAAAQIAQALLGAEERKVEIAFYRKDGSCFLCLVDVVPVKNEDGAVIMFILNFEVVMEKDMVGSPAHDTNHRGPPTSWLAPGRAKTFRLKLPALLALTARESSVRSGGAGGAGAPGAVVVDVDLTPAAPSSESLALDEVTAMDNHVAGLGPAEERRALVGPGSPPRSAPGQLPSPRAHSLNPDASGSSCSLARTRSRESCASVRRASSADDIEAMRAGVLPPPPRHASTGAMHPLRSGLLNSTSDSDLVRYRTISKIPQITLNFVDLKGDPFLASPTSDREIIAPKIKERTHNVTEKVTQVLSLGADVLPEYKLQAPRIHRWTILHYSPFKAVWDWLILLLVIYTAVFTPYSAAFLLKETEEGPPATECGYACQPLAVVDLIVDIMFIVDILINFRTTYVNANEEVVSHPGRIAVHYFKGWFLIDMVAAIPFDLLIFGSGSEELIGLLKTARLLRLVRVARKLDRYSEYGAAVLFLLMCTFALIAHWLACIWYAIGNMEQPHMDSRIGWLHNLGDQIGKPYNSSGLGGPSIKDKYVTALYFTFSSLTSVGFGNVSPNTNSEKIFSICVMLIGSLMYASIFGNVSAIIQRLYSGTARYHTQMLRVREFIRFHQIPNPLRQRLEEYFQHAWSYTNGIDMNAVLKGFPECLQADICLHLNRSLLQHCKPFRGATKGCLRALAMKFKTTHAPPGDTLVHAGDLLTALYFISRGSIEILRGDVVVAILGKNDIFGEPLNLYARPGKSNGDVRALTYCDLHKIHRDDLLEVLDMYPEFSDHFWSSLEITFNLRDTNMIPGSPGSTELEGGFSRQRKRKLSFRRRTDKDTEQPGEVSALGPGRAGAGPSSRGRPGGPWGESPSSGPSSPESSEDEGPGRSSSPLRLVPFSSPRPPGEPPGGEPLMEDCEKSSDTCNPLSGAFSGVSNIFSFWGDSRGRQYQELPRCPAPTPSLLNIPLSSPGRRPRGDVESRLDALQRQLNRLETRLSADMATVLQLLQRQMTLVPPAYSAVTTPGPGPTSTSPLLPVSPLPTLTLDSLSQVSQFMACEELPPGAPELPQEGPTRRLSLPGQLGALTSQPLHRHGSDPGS

The assay concerns the target human ether-à-go-go-related gene (hERG) potassium channel (human, UniProt Q12809). The assay can be described thus: primary screen, population patch clamp on CHO cells stably expressing hERG.
With `Cc1ccccc1N1CCN(C2CCCN(C(=O)c3cc(C(C)C)[nH]n3)C2)CC1` (stereo not drawn), the “hERG current change (%, negative = inhibition) at 1uM” value was -41.4%. As for `COCCCNCCCOc1ccc(C(C)(C)c2ccccc2)cc1.O=C(O)C(=O)O`, the “hERG current change (%, negative = inhibition) at 1uM” value is 4.73%. The same measure for `C=C1CC2C(=O)N(Cc3ccccc3)C(C(=O)OCC)(C(=O)OCC)C1N2C(=O)OC(C)(C)C` (stereo not drawn): 7.83%; for `Cc1ccc(NC(=O)CN(c2ccccc2F)S(C)(=O)=O)cc1`: 7.29%. The same measure for `CC1CCCCC1NCC(=O)Nc1ccccc1-c1ccccc1.O=C(O)C(=O)O` (stereo not drawn): 12.3%; for `COc1ccc(/C=C(/NC(=O)c2ccccc2OC)C(=O)Nc2ccc(C(=O)O)cc2)cc1`: 11.6%. Under `Cc1cc(C)c(N)c(C(=O)O)c1` stands 14.5%. Take `O=C(NCCCN1CCOCC1)c1ccc2c(c1)N(Cc1cccc(Cl)c1)C(=O)c1ccccc1S2=O` (stereo not drawn): the “hERG current change (%, negative = inhibition) at 1uM” value is listed as -18.1%. Under `CC(=O)OCC1OC(n2ccc3ccccc32)C(OC(C)=O)C(OC(C)=O)C1OC(C)=O` (stereo not drawn) stands 8.79%. Under `CCc1nc(SCC(=O)N2c3ccccc3CC2C)c2c(C)c(C)sc2n1` (stereo not drawn) stands 12.1%; under `CCC(C)NC(=O)Nc1ccccc1F` (stereo not drawn), -3.08%.

Regarding `COc1cc(OC)c(NS(=O)(=O)c2cn(C)cn2)cc1Cl`, the “hERG current change (%, negative = inhibition) at 1uM” value was 12.3%.

As for `O=C(COC(=O)c1cc(Br)ccc1O)NC1CCCCCC1`, the “hERG current change (%, negative = inhibition) at 1uM” value was 1.56%. For the compound `CSc1ccc(S(=O)(=O)NC(C)c2ccccc2)cc1` (stereo not drawn), the “hERG current change (%, negative = inhibition) at 1uM” value amounted to 14.3%.

As for `NC(=O)c1c(NC(=O)c2cnccn2)sc2c1CCCC2`, the “hERG current change (%, negative = inhibition) at 1uM” value came to 18.1%. Under `COc1ccc2c(c1)C(=NNc1ccc(C(=O)O)cc1)c1cc(OC)ccc1-2` stands -2.5%; under `O=C(c1ccc(S(=O)(=O)N2CCC(c3nc4ccccc4s3)CC2)cc1)N1CCOCC1`, 9.13%.

In the case of `Cc1ccc(-c2[nH]ncc2/C=N/n2c(COc3ccccc3)nc3ccccc3c2=O)cc1`, the “hERG current change (%, negative = inhibition) at 1uM” value turned out to be 10.9%. As for `CCOC(=O)c1ccc2c(c1)n(CC)c(/C=C/N(C)c1ccccc1)[n+]2CC.[I-]`, the “hERG current change (%, negative = inhibition) at 1uM” value is recorded as -66.2%. Under `Cc1cccc2sc(N(CCCN3CCOCC3)C(=O)CS(=O)(=O)c3ccc(F)cc3)nc12.Cl` stands 12.6%.

For `Cc1c(C(=O)NN)nn(-c2ccc(F)cc2)c(=O)c1C#N`, the “hERG current change (%, negative = inhibition) at 1uM” value came out at 12.3%. The same measure for `Cn1cc[n+](C)c1P(=S)(c1ccccc1)c1ccccc1.[Cl-]`: 10.4%; for `CCCN1c2cccc3cccc(c23)S1(=O)=O`: 5.01%. Under `COc1cc2c(cc1NC(=O)COC(=O)C1CC(=O)N(Cc3ccco3)C1)oc1ccccc12` (stereo not drawn) stands 11.4%; under `CN1CCN(C(=O)C23CC4CC(CC(C4)C2)C3)CC1`, 9.93%. As for `CCc1cc(=O)[nH]c(SCCC(F)=C(F)F)n1`, the “hERG current change (%, negative = inhibition) at 1uM” value turned out to be 12.6%. The same measure for `COc1ccccc1OCC(=O)NCCS(=O)(=O)N1CCN(c2ccccc2)CC1`: -16.3%; for `CN=C1CC(C)(C)CC(=O)/C1=C(/O)CCCN1C(=O)c2ccccc2C1=O`: 10.4%; for `CC1(C)CC(CCC(=O)NC(=S)Nc2ccccc2Cl)C(=O)O1` (stereo not drawn): 12.9%. Under `CCN1CCN(CCCNC(=O)CS(=O)(=O)Cc2nc(-c3cccc(OC)c3)oc2C)CC1` stands -15.1%; under `Cc1occc1-c1nnc(SCC(=O)Nc2ccc(F)cc2)n1C`, 18.2%.

As to `Cc1noc(C)c1CSc1nc2ccccc2c(=O)n1-c1ccccc1`, the “hERG current change (%, negative = inhibition) at 1uM” value is given as 2.24%. The same measure for `Cc1ccc2c(c1)N(CC(=O)NC1CCCCC1)C(=O)c1cccnc1O2`: 2.93%; for `c1ccc2c(c1)nc(NCCN1CCOCC1)c1nncn12`: 14.2%; for `Oc1c(CN2CCOCC2)cc(-c2ccccc2)cc1CN1CCOCC1`: 8.64%.

Regarding `O=C(CN1C(=O)c2cccnc2Oc2ccc(Cl)cc21)Nc1ccccc1F`, the “hERG current change (%, negative = inhibition) at 1uM” value was -4.3%. The same measure for `O=C(CCC1CCCN(Cc2ccncc2)C1)NCc1ccc(F)c(F)c1` (stereo not drawn): 0.967%.

`COc1ccc(CSCC(=O)NCCC(C)C)cc1`: the “hERG current change (%, negative = inhibition) at 1uM” value is given as 16.7%. The same measure for `COc1cc2c(c(OC)c1OC)-c1ccc(O)cc1[C@@H](NC(C)=O)CC2`: 12.5%; for `CCN(C(=O)CN1CCOCC1)C1(C)C(=O)c2ccccc2C1=O.Cl`: 9.74%. Under `CSCCC(NC(=O)c1ccccc1)C(=O)NCc1ccco1` (stereo not drawn) stands -5.76%; under `O=C(COC(=O)CNS(=O)(=O)c1ccccc1)Nc1ccc(Cl)cn1`, 1.6%; under `Cc1cc(C)nc(NNC2=CC(=O)CC(C)(C)C2)n1`, 11.3%. Under `COc1ccc(C(=O)N[C@H](C(=O)NCc2cccs2)C(C)C)cc1` stands 12%.

Take `COc1cc(/C=C(/C)[N+](=O)[O-])ccc1OCc1ccccc1Cl`: the “hERG current change (%, negative = inhibition) at 1uM” value amounted to 13.1%. `CN(C)/C=C(/C(=O)c1ccccc1Cl)S(=O)(=O)c1ccccc1`: the “hERG current change (%, negative = inhibition) at 1uM” value is 11.4%. Under `O=C(NCCc1ccccn1)c1nc(Cn2cc(Br)cn2)no1` stands 8.89%.

Consider `O=C(COC(=O)/C=C/c1ccccc1)NCC1CCCO1` (stereo not drawn), for which the “hERG current change (%, negative = inhibition) at 1uM” value came to 12.3%. The same measure for `COc1ccc(CCNC(=O)c2ccc(CS(=O)(=O)c3ccc(C)cc3)o2)cc1OC`: 9.14%. The same measure for `c1ccc(N2CCN(c3ncccn3)CC2)cc1`: 4.18%; for `CC1CC(C)CN(CCCNS(=O)(=O)c2cc(Br)cc3c2N(C(=O)C2CC2)CC3)C1` (stereo not drawn): 3.87%. Regarding `C[N+]1(CC(O)c2ccccc2)CCCCCC1.[I-]` (stereo not drawn), the “hERG current change (%, negative = inhibition) at 1uM” value worked out at 11.5%. The same measure for `c1ccc(CN2CCCC3(CCCN(Cc4nc(COc5ccccc5)no4)C3)C2)cc1` (stereo not drawn): -2.33%; for `CCCCOc1ccccc1C1NC(=O)NC(C)=C1C(=O)OCc1ccco1` (stereo not drawn): 12.5%. `CC(=O)Nc1ccc(S(=O)(=O)N2C(C)CCCC2C)cc1` (stereo not drawn): the “hERG current change (%, negative = inhibition) at 1uM” value amounted to 9.71%. Consider `N#C/C(=C\c1ccc(-c2cccc(Cl)c2)o1)C(=O)Nc1cccc2cccnc12`, for which the “hERG current change (%, negative = inhibition) at 1uM” value came to 17.1%.

With `CCOC(=O)N1CCC(Nc2c(Nc3cccc(CC)c3)c(=O)c2=O)CC1`, the “hERG current change (%, negative = inhibition) at 1uM” value is 0.738%. In the case of `O=C(NNS(=O)(=O)c1ccccc1)c1cccnc1`, the “hERG current change (%, negative = inhibition) at 1uM” value was 3%. Turning to `CCN(CC)CCC#CC(O)(c1ccccc1)C1CCCCC1` (stereo not drawn), the “hERG current change (%, negative = inhibition) at 1uM” value turned out to be 4.82%. Under `O=C(NCc1ccccc1)c1ccc(NS(=O)(=O)c2cccs2)cc1` stands 0.454%; under `Cc1nc2ccc(S(=O)(=O)NCC(=O)Nc3ccc(F)cc3)cc2s1`, 13.1%; under `CCCc1nnc(SCc2ccc(OC)cc2)n1N`, 8.6%. Turning to `O=C(Cn1ncc2c([nH]c3ccccc32)c1=O)Nc1cccnc1`, the “hERG current change (%, negative = inhibition) at 1uM” value came to 6.51%. As to `Cc1ccc(OCCCn2cc(C#N)c3ccccc32)cc1`, the “hERG current change (%, negative = inhibition) at 1uM” value came to 9.55%. Under `COc1ccc(NC2CCCN(C(=O)c3cc(CC(C)C)nc(N)n3)C2)cc1` (stereo not drawn) stands 16.7%. Under `Cc1cccc2c(=O)c(-c3ccc(Cl)cc3)c(NC(=O)c3ccco3)oc12` stands 12.7%.

In the case of `CSC1=NC2(C[C@H]2c2ccccc2)C(=O)N1C` (stereo partly drawn), the “hERG current change (%, negative = inhibition) at 1uM” value is listed as 15%. Under `CC/C(=N\NC(=O)c1ccccc1)c1c(O)n(Cc2ccccc2)c(=O)[nH]c1=O` stands 16.5%; under `Cc1ccc(C2=NN(S(C)(=O)=O)C(c3ccc4nccnc4c3)C2)cc1` (stereo not drawn), -2.05%. The same measure for `CSc1ccccc1NC(=O)C1=CC(c2ccc(C)cc2)=NS(=O)(=O)N1C`: 3%; for `COC(=O)C1=C(C)NC2=C(C(=O)CC(c3cccs3)C2)C1c1ccsc1` (stereo not drawn): 3.92%; for `CCOC(=O)Cn1c(=O)oc2cc(S(=O)(=O)NC(C)(C)CC)ccc21`: 4.12%. For `CC1CCN(S(=O)(=O)N2CCC(C(=O)NCc3ccc4c(c3)OCO4)CC2)CC1`, the “hERG current change (%, negative = inhibition) at 1uM” value is 9.22%. For `CC(=O)NC(C)C(=O)OCc1ccc(Cl)cc1Cl` (stereo not drawn), the “hERG current change (%, negative = inhibition) at 1uM” value is listed as 1.73%. The same measure for `CCCCc1c(C)c2ccc(OCC(C)=O)cc2oc1=O`: 3.7%. As for `O=C(COc1ccccc1)Nc1cc(S(=O)(=O)N2CCOCC2)ccc1N1CCCC1`, the “hERG current change (%, negative = inhibition) at 1uM” value worked out at 5.18%. Regarding `CC(=O)Nc1cccc(OCC(=O)NCCC2=CCCCC2)c1`, the “hERG current change (%, negative = inhibition) at 1uM” value is -12.1%. Turning to `Oc1ccc(NCc2cccc(OCc3ccccc3)c2)cc1`, the “hERG current change (%, negative = inhibition) at 1uM” value worked out at 6.71%. The same measure for `N#CC1=C(Nc2ccccc2)SC=C(c2ccc(Cl)c(Cl)c2)N=C1N1CCOCC1`: -27.1%.

In the case of `CCN(CCNC(=O)c1ccc2nc(-c3ccccc3NC(C)=O)c(=O)[nH]c2c1)c1ccccc1`, the “hERG current change (%, negative = inhibition) at 1uM” value stood at 14.5%. Under `Cc1ccc(NC(=O)COC(=O)CCC(=O)c2ccc(C(C)(C)C)cc2)c([N+](=O)[O-])c1` stands 13%.

Turning to `Cc1ccc(-c2nc(C#N)c(NCC3CCCO3)o2)cc1` (stereo not drawn), the “hERG current change (%, negative = inhibition) at 1uM” value amounted to 3.64%.

`COc1cc(SC#N)ccc1N=Cc1c(C)[nH]n(-c2cccc3ccccc23)c1=O`: the “hERG current change (%, negative = inhibition) at 1uM” value is listed as 13.4%. The same measure for `O=C(O)Cn1nnn(-c2ccccc2)c1=S`: 9.44%.

On to `Cc1nc(Nc2cccc(C(F)(F)F)c2)nc2c1C(=O)CC(C)C2` (stereo not drawn), for which the “hERG current change (%, negative = inhibition) at 1uM” value is reported as 9.18%. The same measure for `CC(C)C[C@H]1C(=O)N2CCC[C@H]2[C@]2(O)O[C@](NC(=O)C3C=C4c5cccc6[nH]c(Br)c(c56)C[C@H]4N(C)C3)(C(C)C)C(=O)N12.CS(=O)(=O)O` (stereo partly drawn): 19.4%; for `COc1ccc(CCNC(=O)c2ccc(N3CCCC3=O)cc2)cc1OC`: 6.54%.
